Results on one substance are retold here after FireProtDB (doi:10.1016/j.jmb.2004.06.076).

For this series the following is noted: Escherichia coli, 10 °C, Urea, Fluorescence, sodium phosphate 50 mM, reversible: Unknown.

As for “Colicin-E9 immunity protein wild type (chain not printed)”, the unfolding free energy (pH 6, Na2SO4 0.4 M) amounted to 5.9 kcal/mol and the unfolding free energy (pH 7) is 6.48 kcal/mol.
